# Measured values from the supplement of paper PMC10126150.
# Values marked as one replicate rest on one cluster of the flow cell; about a third of the high ones do not repeat.
# System: ATP
# Assay: switch fluorescence ratio, 500 uM ATP over buffer (Cy3 cluster intensity, sum of 5 cycles each) (fold (ratio)); higher = stronger signal-on switching upon ATP binding; sequences stand for … in TCGTCGGCAGCGTCAGATGTGTATAAGAGACAGTTTTTTTTTTTTTTTTTTTTTTTTT…TC
# Details: aptamer strand: ATP DNA aptamer (quencher-CACCTGGGGGAGTATTGCGGAGGAAGG + anchor), 100 nM annealed; ATP concentration: 500 uM; one replicate
# How it was run: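 Clusters carrying Cy3-labelled switching strands on a modified Illumina MiSeq flow-cell were annealed to 100 nM quencher-labelled ATP aptamer and imaged in selection buffer. They were imaged again after 15 min with 500 uM ATP at 22 °C, over five buffer/ATP cycles with NaOH stripping and re-annealing in between. For each cluster, the fluorescence ratio is the summed Cy3 intensity of the target cycles divided by that of the buffer cycles, averaged per switch-domain sequence. Clusters outside 100-1000 RFU were left out.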
# 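Note: ATP exposure 15 min at 22 °C before imaging.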
row,Sequence,switch fluorescence ratio
1,AGCTGTGC,1.07
2,AGCTTAGTCC,1.15
3,AGCTTAGTTA,0.969
4,AGCTTTAGG,1.02
5,AGCTTTGCAA,1.18
6,AGCTTTTGTG,0.958
7,AGGAAAAAGA,0.976
8,AGGAAAACTT,1.07
9,AGGAACGAT,1.01
10,AGGAAGATGA,0.977
11,AGGAAGCATA,1.05
12,AGGAATACGG,1.29
13,AGGAATATGT,0.97
14,AGGAATGTCT,0.937
15,AGGAATTATA,0.994
16,AGGACACATT,1.05
17,AGGACAGACG,1.06
18,AGGACAGACT,0.945
19,AGGACAGAGG,1.07
20,AGGACCTATA,0.972
21,AGGACGGGTT,0.98
22,AGGACTTCTA,1.05
23,AGGAGCACGA,0.992
24,AGGAGGATAA,1.01
25,AGGAGGGTGT,1.11
26,AGGAGTAGAG,0.984

row,Sequence,switch fluorescence ratio
1,AGGAGTATCT,0.972
2,AGGAGTGACC,1.04
3,AGGAGTGCAG,1.02
4,AGGAGTGCTA,0.956
5,AGGAGTGGAA,0.955
6,AGGATAAAGC,0.999
7,AGGATATGTT,0.98
8,AGGATCAGTA,0.987
9,AGGATCGCCA,0.988
10,AGGATGATTT,1
11,AGGATGTTAC,1.01
12,AGGATTACTT,1.06
13,AGGATTCTGT,0.993
14,AGGCAAAGAT,1.01
15,AGGCAATGGA,1.04
16,AGGCAATTTA,0.999
17,AGGCACCGTG,1.01
18,AGGCACGGGT,0.978
19,AGGCACTCTT,0.986
20,AGGCAGAGGA,1.02
21,AGGCATAAAA,0.992
22,AGGCATCCGA,1.01
23,AGGCATGGGG,0.992
24,AGGCATTCAA,1.04
25,AGGCATTCAG,0.987
26,AGGCCAGAGT,0.985

row,Sequence,switch fluorescence ratio
1,AGGCCAGCAT,1.01
2,AGGCCAGCTC,1.01
3,AGGCCATTGC,1
4,AGGCCCGCGC,0.994
5,AGGCCCGGAA,1.02
6,AGGCCGCGTA,1.02
7,AGGCCGGCGA,1.03
8,AGGCCGGGAG,1.05
9,AGGCCTTGCT,0.946
10,AGGCCTTGG,1
11,AGGCGACTAA,0.963
12,AGGCGAGTTC,0.968
13,AGGCGCATCT,0.989
14,AGGCGCTGGC,0.914
15,AGGCGGCTCG,0.981
16,AGGCGGGACT,1
17,AGGCGGGAT,1.02
18,AGGCGGGGAC,1.01
19,AGGCGGTCAA,1.01
20,AGGCGTTTAA,0.999
21,AGGCTAAAGT,0.952
22,AGGCTAAATT,0.96
23,AGGCTACACG,0.982
24,AGGCTAGTCG,1.04
25,AGGCTATAGA,1.05
26,AGGCTATATC,1.11

row,Sequence,switch fluorescence ratio
1,AGGCTCGTA,1.01
2,AGGCTGATAT,1.03
3,AGGCTGTTTC,1.04
4,AGGCTTTAGG,0.993
5,AGGGAATGGG,0.97
6,AGGGACAGCT,1.01
7,AGGGACGACT,1.03
8,AGGGACTGCG,0.984
9,AGGGAGATTA,1.03
10,AGGGAGGCCA,1.01
11,AGGGAGGT,1
12,AGGGATAAT,1.05
13,AGGGATATAA,1.04
14,AGGGATCAGA,1.03
15,AGGGATCTGT,1.01
16,AGGGATGA,1
17,AGGGATGAAT,0.966
18,AGGGATGAGC,0.996
19,AGGGATGTCG,0.942
20,AGGGATTCTG,0.974
21,AGGGCACGAA,1.01
22,AGGGCATGTC,1.04
23,AGGGCCACG,0.992
